# Laboratory results: the supplement of paper PMC11417369
# The list shows a part of the results.
# Tested on: PfSIP2 AP2 domain 1 (GST-tagged)
# Test: gcPBM binding intensity (ln(normalized median fluorescence intensity)); higher = stronger DNA binding
# Procedure, shortened: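 An Agilent 4 × 180k array of primer-extended double-stranded 36-bp intergenic genomic probes, with negative controls, was incubated for 1 h with GST-tagged P. falciparum DNA-binding domains expressed in E. coli. Alexa488 anti-GST antibody detected bound protein, scanned at 488 nm. Binding intensity is the highest Masliner-normalised natural-log median intensity across replicate spots of either probe orientation.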
row,Sequence,gcPBM binding intensity (ln)
1,ATAATATGAAACTAAGGTACACATATATTAACAGAG [XGTACX_site3842],7.46
2,TACAAATTAATATGTACACACAAATATATATATATA [CACACA_site1977],9.27
3,TGCGACCATAATAAAGCACACAATGAAAAATATATA [CACACA_site256],6.96
4,TGTGCTCAAAATTATGCACACACCTAAAATTAATTT [CACACA_site8950],7.77
5,TATACATATTTTATAGCACACAAATAATAATATGTA [CACACA_site8129],6.93
6,CCAACTATATTATGAAGTACATATATATTATATATA [XGTACX_site5767],7.19
7,AAACCTACATAACATACACACGCATATATATAATTT [CACACA_site8923],7.24
8,TTTTTTTTTTTTTATTGTACATGCAAAAAATTCCAC [XGTACX_site2371],7.55
9,TTGGGTATTTTGTGCGCACACACATGCAAAAAGAAA [CACACA_site8299],9.26
10,GTAAGTATATATAAATGTACTTATGAGGTCAAATTA [XGTACX_site3392],7.05
11,ATATATATATATTGTAGTACTTATTAAATTATTTAT [XGTACX_site6235],8.84
12,TCTGTATTTCCTTATGCATGCATTAGCAAGATAATA [TGCATGCA_site483],7.3
13,ATATATAATCATATGTGTACATATATATTAATTTAA [XGTACX_site2839],7.07
14,AATTCAAAATAAAAATGTACATATATCAGAATATGG [XGTACX_site42],6.98
15,ACTTGTAAGAAACACACACACACACCGATATATATA [CACACA_site4594],7.38
16,ATTATTTTTTTTCTTATACACACCATGCATCAAACT [CACACA_site2128],7.37
17,AAAAATAAGAAAAAGTGTACTTTATTATGTATATAT [XGTACX_site2305],7.11
18,AAAAAAAAAAAAAAAACACACATTTAATGAACTTAT [CACACA_site1276],7.58
19,ATGAGAAAATATATTATTTTATATGAACAAGTTTAT [XGTACX_negctrl_site372],6.88
20,AATAATGTATGAAATAAACACACAAGTAAGTACATA [CACACA_site8776],7.13
21,ATAATTTTAAATAAATGTACATATAGATGTGTGTAA [XGTACX_site3958],7.62
22,AAATGTTATATATAATGTACTTGTAAGAACGTTCCT [XGTACX_site2840],6.91
23,AAAATTATATATTATAGTACATAAAATATTGATAAA [XGTACX_site8988],6.9
24,AAGATACACTTAATCGCACACGAAATTATATATTTA [CACACA_site3063],6.92
25,TTTTTTTTTTATGTTATTAAAAAAAAAAAAAATTAA [CACACA_negctrl_site222],6.79
